# Measured values reported in PubChem BioAssay AID2675 (National Center for Advancing Translational Sciences (NCATS), 2010).
# The whole screen tested about 280,000 compounds, of which about 100 (0.036%) were called active. The inconclusive results got no clear call from the source; some entries with a clear call stand among them for comparison. The call rests on the fitted dose curve; in most records, active means well fitted inhibition curve with a large enough effect in the signal ratio, with a control signal flat (not every such curve was filed as active); inconclusive means small, poorly fitted or top-dose-only effect, or effect the other way, or a change in a side signal; inactive means no such curve, though single readings can be large or run the other way; the % refers to the signal ratio. A potency beside an inconclusive call is a rough fit, not a confirmed value. “Side channel” marks fits to a control or component signal instead of the main read-out.
# Biological target: Muscleblind-like protein 1 (Homo sapiens) (UniProt Q9NR56)
# Test: qHTS Assay for Inhibitors of MBNL1-poly(CUG) RNA binding
# Conditions: TR-FRET MBNL1-His/biotin-(CUG)12 binding, 665/545 ratio; series mostly up to 57.5 µM
# Summary of the method: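 TR-FRET readout: Ex 340 nm, 665/545 nm emission ratio, normalized to buffer-only (basal) and MBNL1-(CUG)12 controls. Complex of MBNL1-His with Biotin-(CUG)12, compounds 92 nM–58 uM, incubated 60 min at room temperature.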
# Potency means the concentration at half of the fitted maximal effect; tags describe the fitted curve by direction and shape or compound fluorescence and quenching.
# Sequence of UniProt Q9NR56 (Q9NR56 whole entry, looked up): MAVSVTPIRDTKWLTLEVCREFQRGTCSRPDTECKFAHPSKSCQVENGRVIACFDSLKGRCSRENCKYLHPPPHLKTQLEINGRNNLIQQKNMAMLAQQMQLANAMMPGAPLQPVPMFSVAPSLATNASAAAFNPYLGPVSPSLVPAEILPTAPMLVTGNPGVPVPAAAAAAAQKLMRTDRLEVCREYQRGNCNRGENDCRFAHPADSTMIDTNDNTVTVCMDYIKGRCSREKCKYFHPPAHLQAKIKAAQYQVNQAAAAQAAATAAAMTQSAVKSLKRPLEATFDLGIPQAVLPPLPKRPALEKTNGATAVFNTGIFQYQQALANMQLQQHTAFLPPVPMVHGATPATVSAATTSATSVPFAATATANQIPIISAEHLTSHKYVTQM
row,SMILES,Potency
1,COc1ccc(C(=O)OCC(=O)NCC2CCCO2)cc1[N+](=O)[O-] (configuration not stated),"inconclusive: 15.8 µM [quencher, side channel, partial curve]"
2,COc1ccccc1OCC(=O)Nc1cccc(-c2nnc(-c3ccco3)o2)c1,inactive
3,COc1ccc(Br)cc1[C@H]1[C@H]2C=CC[C@@H](C)[C@@H]2C(=O)N1Cc1ccccc1,inactive
4,CCCC1N2CC3([N+](=O)[O-])CN1CC([N+](=O)[O-])(C2)C3(C)C (configuration not stated),"inconclusive: 0.355 µM [fluorescent, side channel, partial curve]"
5,O=C(CSc1nnc(NC2CCCCC2)s1)Nc1ccc2c(c1)C(=O)c1ccccc1C2=O,"inconclusive: 10 µM [quencher, side channel, partial curve]"
6,COc1ccc(NC(=O)c2ccc(-n3cncn3)c([N+](=O)[O-])c2)cc1,"inconclusive: 14.1 µM [quencher, side channel, partial curve]"
7,O=C(CCCN1C(=O)c2cccc3cccc(c23)C1=O)NCc1cccnc1,"inconclusive: 11.2 µM [quencher, side channel, partial curve]"
8,CCCOC(=O)Nc1cc(OC)ccc1[N+](=O)[O-],"inconclusive: 28.2 µM [quencher, side channel, partial curve]"
9,CCOC(=O)/C(O)=C/c1ncc(C(F)(F)F)cc1Cl,"inconclusive: 25.1 µM [quencher, side channel, single point]"
10,O=C(NCCCN1CCOCC1)c1ccc(N2CCOCC2)c([N+](=O)[O-])c1,"inconclusive: 11.2 µM [quencher, side channel, partial curve]"
11,CCOc1ccc2nc3sc(C(=O)N4CCOCC4)c(N)c3cc2c1,"inconclusive: 35.5 µM [quencher, single point]"
12,COc1ccc(-c2nn(-c3ccccc3)cc2/C=C2/SC(=S)N(CCCC(=O)O)C2=O)c(C)c1,inactive
13,OCC1(Cc2ccccc2)CCN(Cc2ccc(-c3ccco3)cc2)CC1,inactive
14,CN(C)c1ccc(/C=C2/NC(=O)NC2=O)cc1,"inconclusive: 10 µM [quencher, side channel, partial curve, poor fit]"
15,CN(C)c1nc(OCCNC(=O)COc2ccc(Cl)cc2Cl)nc(N(C)C)n1,inactive
16,COc1ccc(-c2cc(C(F)(F)F)c(C#N)c(SCC(=O)O)n2)cc1,"inconclusive: 31.6 µM [quencher, side channel, single point]"
17,CCCn1c(=O)[nH]c(=O)c2c1nc(-c1cc([N+](=O)[O-])ccc1Cl)n2CCOC,"inconclusive: 28.2 µM [quencher, side channel, partial curve]"
18,CCc1nc(SCC(=O)Nc2ccc(OC)cc2[N+](=O)[O-])n[nH]1,"inconclusive: 17.8 µM [quencher, side channel, partial curve]"
19,O=C(Oc1cccc(NC(=O)c2ccccc2Cl)c1)c1ccc([N+](=O)[O-])cc1,"inconclusive: 15.8 µM [quencher, side channel, partial curve]"

row,SMILES,Potency
1,CC(=O)c1cc(C#N)c(SCc2ccncc2)nc1C,"inconclusive: 14.1 µM [quencher, side channel, partial curve]"
2,O=C(Nc1nnc(-c2ccc3c(c2)OCCO3)o1)c1ccc(Cc2ccccc2)cc1,inactive
3,CC1(C)Cc2nc3oc4c(=S)nc[nH]c4c3cc2CO1,"inconclusive: 15.8 µM [quencher, side channel, partial curve]"
4,CC(=O)NC1=C(N(C)C2CCS(=O)(=O)C2)C(=O)c2ccccc2C1=O (configuration not stated),"inconclusive: 5.62 µM [quencher, side channel, partial curve]"
5,COc1ccc(-c2nnc3ccc(SCC(=O)Nc4cc(C)on4)nn23)cc1,"inconclusive: 28.2 µM [quencher, side channel, single point]"
6,C/C(CC(=O)Nc1ccc(Cl)cc1C(F)(F)F)=N\NC(N)=S,inactive
7,COc1ccc(C(=O)C[n+]2ccc3c(c2)nnn3-c2ccccc2)cc1,"inconclusive: 14.1 µM [quencher, side channel, partial curve]"
8,NS(=O)(=O)c1ccc(-c2ccc(/C=C3\SC(=O)NC3=O)o2)cc1,"inconclusive: 28.2 µM [quencher, side channel, partial curve]"
9,O=C(CN1C(=O)c2ccccc2C1=O)N1CCN(S(=O)(=O)c2ccccc2)CC1,"inconclusive: 31.6 µM [quencher, side channel, single point]"
10,Cc1ccccc1NC(=S)N1CCN(c2ccccc2C)CC1,inactive
11,O=C(CNS(=O)(=O)c1ccc(Br)cc1)OCc1cc(=O)n2cc(Br)ccc2n1,"inconclusive: 17.8 µM [quencher, side channel, partial curve]"
12,COc1ccc(NC(=O)c2cccc(NC(=O)C(C)C)c2)c([N+](=O)[O-])c1,"inconclusive: 22.4 µM [quencher, side channel, single point]"
13,COc1cc(C(=O)c2ccccc2)c(OC)cc1C(=O)Nc1ccc(O)cc1,"inconclusive: 22.4 µM [quencher, side channel, single point]"
14,NC(=O)[C@@H]1CCCNc2c(F)cc([N+](=O)[O-])cc2C(=O)N[C@@H](CO)C(=O)N[C@@H](Cc2ccc(O)cc2)C(=O)N1,"inconclusive: 12.6 µM [quencher, side channel, partial curve]"
15,O=C(CN1CCCCC1)NCCNc1ccc(C(F)(F)F)cc1[N+](=O)[O-],"inconclusive: 22.4 µM [quencher, side channel, single point]"
16,COC(=O)C1=C(C)NC(=O)/C1=C\c1ccco1,"inconclusive: 17.8 µM [quencher, side channel, partial curve]"
17,Nc1nc(SCC(=O)Nc2c(Br)cc([N+](=O)[O-])cc2Br)n[nH]1,"inconclusive: 11.2 µM [quencher, partial curve]"
18,CC(C)CSC1=NSC2=NC(=O)/C(=C\c3cccs3)C(=N)N12,inactive
